# Experimental data published in the supplement of paper PMC8728848.
# The list shows a part of the results.
# What was measured:
# Assay in all cases: glycan array binding signal (z-score within array); higher = stronger binding
# Conditions in all cases: glycan notation: IUPAC condensed, linker removed
# Gal6S(b1-4)Glc = molecular target: Gal6S(b1-4)Glc
# How it was run: (§1)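 Glycan array binding is given as a within-array Z-score, which can be read as non-binding when negative. The arrays, 3228 of them, came from the Consortium for Functional Glycomics database and were retained only where the protein sequence was available. Z-scores were averaged across arrays of the same protein sequence at different concentrations or buffers and across linkers.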
# Gal6S(b1-4)Glc6S = molecular target: Gal6S(b1-4)Glc6S
# How it was run: as §1
# Gal6S(b1-4)GlcNAc = molecular target: Gal6S(b1-4)GlcNAc
# How it was run: as §1
# GalNAc(a1-3)Gal = molecular target: GalNAc(a1-3)Gal
# How it was run: as §1
# GalNAc(a1-3)GalNAc = molecular target: GalNAc(a1-3)GalNAc
# How it was run: as §1
# [1] = molecular target: GalNAc(b1-3)Gal(a1-4)Gal(b1-4)GlcNAc
# How it was run: as §1
# GalNAc(b1-4)GlcNAc = molecular target: GalNAc(b1-4)GlcNAc
# How it was run: as §1
# Glc(a1-4)Glc = molecular target: Glc(a1-4)Glc
# How it was run: as §1
# Glc(a1-6)Glc(a1-6)Glc = molecular target: Glc(a1-6)Glc(a1-6)Glc
# How it was run: as §1
# Glc(b1-4)Glc = molecular target: Glc(b1-4)Glc
# How it was run: as §1
# Glc(b1-6)Glc = molecular target: Glc(b1-6)Glc
# How it was run: as §1
# GlcA(b1-3)Gal = molecular target: GlcA(b1-3)Gal
# How it was run: as §1
# GlcA(b1-6)Gal = molecular target: GlcA(b1-6)Gal
# How it was run: as §1
# [2] = molecular target: GlcNAc(a1-3)Gal(b1-4)GlcNAc
# How it was run: as §1
# [3] = molecular target: GlcNAc(a1-6)Gal(b1-4)GlcNAc
# How it was run: as §1
# [4] = molecular target: GlcNAc(b1-2)Gal(b1-3)GlcNAc
# How it was run: as §1
# [5] = molecular target: GlcNAc(b1-2)Man(a1-3)[GlcNAc(b1-2)Man(a1-6)]Man(b1-4)GlcNAc(b1-4)GlcNAc
# How it was run: as §1
# GlcNAc(b1-3)Gal = molecular target: GlcNAc(b1-3)Gal
# How it was run: as §1
# [6] = molecular target: GlcNAc(b1-3)Gal(b1-3)GalNAc
# How it was run: as §1
# GlcNAc(b1-3)Gal(b1-4)Glc = molecular target: GlcNAc(b1-3)Gal(b1-4)Glc
# How it was run: as §1
# [7] = molecular target: GlcNAc(b1-3)Gal(b1-4)GlcNAc
# How it was run: as §1
# [8] = molecular target: GlcNAc(b1-3)Gal(b1-4)GlcNAc(b1-3)Gal(b1-4)GlcNAc
# How it was run: as §1
# GlcNAc(b1-3)GalNAc = molecular target: GlcNAc(b1-3)GalNAc
# How it was run: as §1
# [9] = molecular target: GlcNAc(b1-3)[GlcNAc(b1-4)][GlcNAc(b1-6)]GlcNAc
# How it was run: as §1
# [10] = molecular target: GlcNAc(b1-3)[GlcNAc(b1-6)]Gal(b1-4)GlcNAc
# How it was run: as §1
# [11] = molecular target: GlcNAc(b1-3)[GlcNAc(b1-6)]GlcNAc
# How it was run: as §1
# [12] = molecular target: GlcNAc(b1-4)Gal(b1-4)GlcNAc
# How it was run: as §1
# [13] = molecular target: GlcNAc(b1-4)GlcNAc(b1-4)GlcNAc
# How it was run: as §1
# [14] = molecular target: GlcNAc(b1-4)GlcNAc(b1-4)GlcNAc(b1-4)GlcNAc(b1-4)GlcNAc
# How it was run: as §1
# [15] = molecular target: GlcNAc(b1-4)GlcNAc(b1-4)GlcNAc(b1-4)GlcNAc(b1-4)GlcNAc(b1-4)GlcNAc
# How it was run: as §1
# [16] = molecular target: GlcNAc(b1-4)[GlcNAc(b1-6)]GalNAc
# How it was run: as §1
# [17] = molecular target: GlcNAc(b1-6)Gal(b1-4)GlcNAc
# How it was run: as §1
# GlcNAc(b1-6)GalNAc = molecular target: GlcNAc(b1-6)GalNAc
# How it was run: as §1
# Kdn(a2-3)Gal(b1-3)GlcNAc = molecular target: Kdn(a2-3)Gal(b1-3)GlcNAc
# How it was run: as §1
# Kdn(a2-3)Gal(b1-4)GlcNAc = molecular target: Kdn(a2-3)Gal(b1-4)GlcNAc
# How it was run: as §1
# [18] = molecular target: Man(a1-2)Man(a1-2)Man(a1-3)Man
# How it was run: as §1
# [19] = molecular target: Man(a1-2)Man(a1-2)Man(a1-3)[Man(a1-2)Man(a1-3)[Man(a1-2)Man(a1-6)]Man(a1-6)]Man(b1-4)GlcNAc(b1-4)GlcNAc
# How it was run: as §1
# [20] = molecular target: Man(a1-2)Man(a1-2)Man(a1-3)[Man(a1-2)Man(a1-6)[Man(a1-3)]Man(a1-6)]Man(b1-4)GlcNAc(b1-4)GlcNAc
# How it was run: as §1
# [21] = molecular target: Man(a1-2)Man(a1-2)Man(a1-6)[Man(a1-3)]Man
# How it was run: as §1
# Man(a1-2)Man(a1-3)Man = molecular target: Man(a1-2)Man(a1-3)Man
# How it was run: as §1
# [22] = molecular target: Man(a1-2)Man(a1-3)[Man(a1-2)Man(a1-6)]Man
# How it was run: as §1
# [23] = molecular target: Man(a1-2)Man(a1-3)[Man(a1-3)[Man(a1-6)]Man(a1-6)]Man(b1-4)GlcNAc(b1-4)GlcNAc
# How it was run: as §1
# [24] = molecular target: Man(a1-2)Man(a1-3)[Man(a1-6)]Man(a1-6)[Man(a1-2)Man(a1-3)]Man(b1-4)GlcNAc(b1-4)GlcNAc
# How it was run: as §1
# Man(a1-3)[Man(a1-6)]Man = molecular target: Man(a1-3)[Man(a1-6)]Man
# How it was run: as §1
# [25] = molecular target: Man(a1-3)[Man(a1-6)]Man(a1-6)[Man(a1-3)]Man(b1-4)GlcNAc(b1-4)GlcNAc
# How it was run: as §1
# [26] = molecular target: Man(a1-3)[Man(a1-6)]Man(b1-4)GlcNAc(b1-4)GlcNAc
# How it was run: as §1
# Man(b1-4)GlcNAc = molecular target: Man(b1-4)GlcNAc
# How it was run: as §1
# Neu5Ac(a2-3)Gal = molecular target: Neu5Ac(a2-3)Gal
# How it was run: as §1
# [27] = molecular target: Neu5Ac(a2-3)Gal(b1-3)GalNAc
# How it was run: as §1
binder,measurement,setting,value
CVNH3T (Magnaporthe grisea) (protein) GSHIGPYGNYAGNFSGSSRDICLDGARLRAECRRGDGGYSTSVIDLNRYLSNDNGHFRWVSGGGGGGGTATVTVQQGDTLRDIGRRFDCDFHEIARRNNIQNEDLIYPGQVLQVPTKGGSGGGAGNFWDSARDVRLVDGGKVLEAELRYSGGWNRSRIYLDEHIGNRNGELIHC,glycan array binding signal (z-score),Gal6S(b1-4)Glc,-0.213
same,glycan array binding signal (z-score),Gal6S(b1-4)Glc6S,-0.226
same,glycan array binding signal (z-score),Gal6S(b1-4)GlcNAc,-0.213
same,glycan array binding signal (z-score),GalNAc(a1-3)Gal,-0.239
same,glycan array binding signal (z-score),GalNAc(a1-3)GalNAc,-0.223
same,glycan array binding signal (z-score),[1],3.84
same,glycan array binding signal (z-score),GalNAc(b1-4)GlcNAc,-0.21
same,glycan array binding signal (z-score),Glc(a1-4)Glc,-0.225
same,glycan array binding signal (z-score),Glc(a1-6)Glc(a1-6)Glc,-0.195
same,glycan array binding signal (z-score),Glc(b1-4)Glc,-0.234
same,glycan array binding signal (z-score),Glc(b1-6)Glc,-0.242
same,glycan array binding signal (z-score),GlcA(b1-3)Gal,-0.235
same,glycan array binding signal (z-score),GlcA(b1-6)Gal,-0.236
same,glycan array binding signal (z-score),[2],-0.239
same,glycan array binding signal (z-score),[3],-0.237
same,glycan array binding signal (z-score),[4],-0.233
same,glycan array binding signal (z-score),[5],-0.25
same,glycan array binding signal (z-score),GlcNAc(b1-3)Gal,-0.244
same,glycan array binding signal (z-score),[6],-0.211
same,glycan array binding signal (z-score),GlcNAc(b1-3)Gal(b1-4)Glc,-0.242
same,glycan array binding signal (z-score),[7],-0.229
same,glycan array binding signal (z-score),[8],-0.236
same,glycan array binding signal (z-score),GlcNAc(b1-3)GalNAc,-0.206
same,glycan array binding signal (z-score),[9],-0.227
same,glycan array binding signal (z-score),[10],-0.229
same,glycan array binding signal (z-score),[11],-0.222
same,glycan array binding signal (z-score),[12],-0.22
same,glycan array binding signal (z-score),[13],-0.233
same,glycan array binding signal (z-score),[14],5.39
same,glycan array binding signal (z-score),[15],3.87
same,glycan array binding signal (z-score),[16],-0.223
same,glycan array binding signal (z-score),[17],-0.225
same,glycan array binding signal (z-score),GlcNAc(b1-6)GalNAc,-0.239
same,glycan array binding signal (z-score),Kdn(a2-3)Gal(b1-3)GlcNAc,-0.217
same,glycan array binding signal (z-score),Kdn(a2-3)Gal(b1-4)GlcNAc,-0.232
same,glycan array binding signal (z-score),[18],-0.17
same,glycan array binding signal (z-score),[19],-0.232
same,glycan array binding signal (z-score),[20],-0.201
same,glycan array binding signal (z-score),[21],-0.17
same,glycan array binding signal (z-score),Man(a1-2)Man(a1-3)Man,-0.215
same,glycan array binding signal (z-score),[22],-0.22
same,glycan array binding signal (z-score),[23],-0.193
same,glycan array binding signal (z-score),[24],-0.222
same,glycan array binding signal (z-score),Man(a1-3)[Man(a1-6)]Man,-0.192
same,glycan array binding signal (z-score),[25],-0.23
same,glycan array binding signal (z-score),[26],-0.173
same,glycan array binding signal (z-score),Man(b1-4)GlcNAc,-0.199
same,glycan array binding signal (z-score),Neu5Ac(a2-3)Gal,-0.231
same,glycan array binding signal (z-score),[27],-0.243
